This is one part of the list. At the low end of the ranking the order means little.

The target in the test is MAX:MAX (p21) (UniProt P61244-2). The test can be described thus: protein-binding microarray (anti-MAX antibody). Conditions: PBM: 15 mM Tris-HCl pH 7.5, 100 mM KCl, 0.075% NP40, 7.5 mM beta-mercaptoethanol, 375 ng/ul BSA, 8 ng/ul poly(dA-dT):(dA-dT), 550 ng complex, 60 min, room …; high values mean tight binding; double strand, one strand shown; sequences stand for … in CCGGC…TTAATAGCTAAGATTACTATATCGACG
Sequence TAACACTTGGTA registered a binding signal (log2 normalized fluorescence) of 0.603.
On to TGATTTCTAGTA, for which the binding signal (log2 normalized fluorescence) was -1.47.
Then TGAAGCTTCGTA, with -0.873.
Then TGACACATTGTA, with 1.99.
Then TGAAGGGCAGTA, with -0.488; and TGACCCAAAGTA, with -0.422; and TGATACACCGTA, with -0.545.
For the sequence TGACTGATCGTA, the binding signal (log2 normalized fluorescence) was -0.373.
Then TGAGCCGAAGTA, with -1.17; and TGCCAGGTAGTA, with -0.365; and TGACTTTGGGTA, with -0.965.
Consider TGACATTCTGTA, for which the binding signal (log2 normalized fluorescence) stood at 0.0984.
The sequence TGAGATACTGTA came in with a binding signal (log2 normalized fluorescence) of -0.621.
For TGACAGAGCGTA the value was -0.605; for ATCCACGTGGTA, 3.28.
In turn, AATCTAGTCTAC had a binding signal (log2 normalized fluorescence) of -0.667.
The sequence TGACACGGGTTA displayed a binding signal (log2 normalized fluorescence) of 2.17.
Then TGATTCGAGGTA, with -0.852; and TGAGTTTCCGTA, with -1.03.
Then TGACCTCTCGTA, with -0.5; and ACTATCTTTGTT, with 0.00085.
With TGAAGAGCTGTA, the binding signal (log2 normalized fluorescence) was -0.929.
With TGAGACTTAGTA, the binding signal (log2 normalized fluorescence) is -0.834.
For TGAGCACAGGTA the value was 0.728; for TGAGCTTGGGTA, -1.05; for TGAACCGTGGTA, 0.942.
Then TGACCAAACGTA, with -0.418; and TGAAGGTCGGTA, with -0.597; and TGAGACTGGGTA, with -0.944.
Then TGACGGCTTGTA, with -0.841; and TGATCGCACGTA, with 0.308.
Regarding TGAATCGTTGTA, the binding signal (log2 normalized fluorescence) is -0.465.
Then TGACTAGCAGTA, with -0.892.
Then TGAAACGTGGTA, with 2.95.
Then TGACACGTTGAA, with 2.87; and TGAATAAGCGTA, with -0.651.
On to TGAAATTTTGTA, for which the binding signal (log2 normalized fluorescence) was -1.49.
For TGATCGTGTGTA the value was 1.12.
Take TGAAGAAAAGTA: the binding signal (log2 normalized fluorescence) was -1.05.
Then TGACCACATGTA, with 3.09.
In turn, TGACTCAGCGTA returned a binding signal (log2 normalized fluorescence) of -0.59.
Then TGACGCCAGGTA, with -0.342; and TGAGCCTCGGTA, with -0.847.
TGTCACCTTGTA had a binding signal (log2 normalized fluorescence) of 0.794.
For the sequence TGTTACGTGGTA, the binding signal (log2 normalized fluorescence) was found to be 0.972.
Then TGACATGTGATA, with 3.17; and TGAGCCCGAGTA, with -1.07; and TGATCCGCTGTA, with -0.689.
For TTACACGTGGTA the value was 3.3; for TGATAAGATGTA, -0.756; for TGACGCTGTGTA, -0.204.
Take TGATTTCAGGTA: the binding signal (log2 normalized fluorescence) was -1.19.
In turn, TGACTCCGTGTA showed a binding signal (log2 normalized fluorescence) of 0.0761.
Then TGAGGTTTCGTA, with -1.02.
For TCACACATGCTA the value was 3.15; for TGACACGTATTA, 1.21.
GCCGATTACCCT: the binding signal (log2 normalized fluorescence) was -1.04.
For TGATTAACGGTA the value was -0.892; for TGAAAATTGGTA, -1.07.
Then TGACACTAGGTA, with 0.178; and TAACACGTGGAA, with 3.35; and TGAGCGTGGGTA, with 2.35.
TGAGTTCACGTA had a binding signal (log2 normalized fluorescence) of -0.381.
On to TGAGGGGGGGTA, for which the binding signal (log2 normalized fluorescence) is 2.32.
Then GGACACGTGTGA, with 3.15.
For TGACGCAGCGTA the value was -0.13; for TGACGATTTGTA, -0.952; for TGAATGATAGTA, -0.224.
Then TGACACCAAGTA, with 0.085; and TGATTCCGCGTA, with -0.773.
TGATCCATAGTA: the binding signal (log2 normalized fluorescence) is -0.834.
TGAAGGCGGGTA: the binding signal (log2 normalized fluorescence) was -0.384.
Then TGATTCTGAGTA, with -1.02.
Then TTCTACGTGGTA, with 1.32.
For TGATATGCCGTA the value was -0.595.
The sequence AGTCACATGGTA showed a binding signal (log2 normalized fluorescence) of 3.15.
Then TGAAGCCCTGTA, with -0.819; and TGAATCGTCGTA, with -1.17.
For TGAGCATCCGTA the value was -0.573; for TGACACGGATTA, 0.43.
TGACGTCTGGTA returned a binding signal (log2 normalized fluorescence) of -0.298.
Then ACTCACGTGGTA, with 3.13; and TGATGAGATGTA, with -0.389; and TGACACGTAATA, with 0.894.
Then TGAAGGTCAGTA, with -0.245; and TGAAGCGACGTA, with -0.532.
In the case of TGAGGGTTCGTA, the binding signal (log2 normalized fluorescence) is -0.732.
As for TGAAACACCGTA, the binding signal (log2 normalized fluorescence) was -0.0366.
Then TGAGAAGCCGTA, with -0.996; and TGACGAAGGGTA, with -0.694; and TGAACTGTGGTA, with -0.167.
Then TGACGGGGGGTA, with 2.03.
For TGACACGTGAGT the value was 3.25; for TGACCATGTGTA, 3.23; for TGAACTGCTGTA, -0.0834.
TGAACGACAGTA displayed a binding signal (log2 normalized fluorescence) of -0.362.
Then TGATGGGGTGTA, with 0.609.
The sequence TGATACCGGGTA had a binding signal (log2 normalized fluorescence) of -0.949.
Then TGAGCCTAAGTA, with -1.2.
For AGACACGTGGTG the value was 3.28.
TGATCCGTAGTA yielded a binding signal (log2 normalized fluorescence) of -1.14.
For TGAAGTAAGGTA the value was -0.27; for TGATTCCAAGTA, -0.654.
TAAAACGTGGTA registered a binding signal (log2 normalized fluorescence) of 3.1.
For TGACAGATCGTA the value was -0.703; for TGACGGTAAGTA, -0.542.
Sequence TGAGCCGTAGTA had a binding signal (log2 normalized fluorescence) of -1.3.
For TGATGGATTGTA the value was -0.242; for TGAGAGTGGGTA, -0.434.
Then TGAGGCCGCGTA, with -0.593.
Sequence TGATACCATGTA had a binding signal (log2 normalized fluorescence) of 0.272.
Then TGACACGTCCCA, with 1.31.
Take TGATCCACGGTA: the binding signal (log2 normalized fluorescence) was 0.146.
For TGAAGCGTCGTA the value was -0.454; for TCCCACGTAGTA, 1.6; for TGACCCATCGTA, -0.316.
For TGACGTACTGTA the value was -0.303; for TGACAACCAGTA, 0.135; for TGACAGAGAGTA, -0.213.
For TGATGCTGTGTA the value was -0.14.
In turn, TGAACTATGGTA had a binding signal (log2 normalized fluorescence) of -0.682.
For TGAAGCCCGGTA the value was -0.644.
For TGACACGGCCTA, the binding signal (log2 normalized fluorescence) was 0.786.
For TGAAAGATAGTA the value was -0.905; for TGACGAAGCGTA, -0.906.
For TGACACGTGGCC the value was 3.37; for TGAAGGCTAGTA, -0.822.
Take TGACGGTTTGTA: the binding signal (log2 normalized fluorescence) was -0.912.
For TGAGAGGCAGTA the value was -0.654; for TGAAGTCGAGTA, -0.979.
For the sequence TGACCGGTGCTA, the binding signal (log2 normalized fluorescence) amounted to 0.574.
On to TGAGCATCTGTA, for which the binding signal (log2 normalized fluorescence) came out at 0.186.
For TGATTGCCAGTA the value was -0.592.
TGACAGTGCGTA: the binding signal (log2 normalized fluorescence) was 0.131.
Consider TGACCTCAAGTA, for which the binding signal (log2 normalized fluorescence) is 0.186.
With TGAATCCGAGTA, the binding signal (log2 normalized fluorescence) is -1.09.
The sequence TGATAGTGAGTA showed a binding signal (log2 normalized fluorescence) of -0.461.
Take TGACACCTGAGA: the binding signal (log2 normalized fluorescence) was determined as 1.4.

The values are drawn from PMC5515408.
